Article PMC5892938
The other results are listed elsewhere or left out. At the low end of the ranking, values are background and their order means little.

Target: GST-SBP-SLBP (stem-loop binding protein) (UniProt Q14493)
Assay: targeted RNA Bind-n-Seq;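 further: DESeq read counts versus GST-SBP nonspecific binding control pulldown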
Conditions: RBNS binding buffer: 25 mM Tris pH 7.5, 150 mM KCl, 3 mM MgCl2, 0.1% Tween, 0.5 mg/mL BSA, 1 mM DTT; 27 nM protein, 750 pM RNA pool; temperature not stated; high values mean tight binding

| Sequence | binding signal (log2 fold change) |
| --- | --- |
| GGUCACGUCUCAAUCAACUCAUGUCCAGGAGUUUCCUCCUGCUAUUUCAACAGCUCGCAGUCAAG | -0.126 |
| GGUCACGUCUCAAUCAACUCUUCUCCCAGGGAAACCCCUGGUAAAUUCAACAGCUCGCAGUCAAG | -0.306 |
| GGUCACGUCUCAAUCAACUCUCAAGAGGGGGGGAAAACCCCUUUACCCUCAUAAUCAACAGCUCGCAGUCAAG | 0.0676 |
| GGUCACGUCUCAAUCAACUCUAUCUCCAGGGAAAACCCUGGUAUACUCAACAGCUCGCAGUCAAG | -0.151 |
| GGUCACGUCUCAAUCAACUCUUCCGCAGGAGUUUUCUCCUGGUAUCUCAACAGCUCGCAGUCAAG | 0.0988 |
| GGUCACGUCUCAAUCAACUCAUUCUCAGGAGUUUCCUCCUGCUUAUUCAACAGCUCGCAGUCAAG | -0.0944 |
| GGUCACGUCUCAAUCAACUCCUCAGAGGGGGGGAAAACCCCUUUACCCUCACCGUCAACAGCUCGCAGUCAAG | -0.457 |
| GGUCACGUCUCAAUCAACUCAUUUUCAGGAGUUUACUCCUGUUUAUUCAACAGCUCGCAGUCAAG | 0.0507 |
| GGUCACGUCUCAAUCAACUCAUUCCCCAGGGAAACCCCUGGCAUUCUCAACAGCUCGCAGUCAAG | 0.113 |
| GGUCACGUCUCAAUCAACUCCCACGAGGGGGGGAAAACCCCUUUACCCUCUCAAUCAACAGCUCGCAGUCAAG | 0.362 |
| GGUCACGUCUCAAUCAACUCUUCCUCCAGGGAAAACCCUGGUUUACUCAACAGCUCGCAGUCAAG | 0.0285 |
| GGUCACGUCUCAAUCAACUCAUCUUCCAGGGAAAACCCUGGCAAUUUCAACAGCUCGCAGUCAAG | 0.0291 |
| GGUCACGUCUCAAUCAACUCUAUCCCCAGGGAAAACCCUGGCAUAUUCAACAGCUCGCAGUCAAG | -0.164 |
| GGUCACGUCUCAAUCAACUCAUCCUCAGGAGUUUACUCCUGCUAUUUCAACAGCUCGCAGUCAAG | 0.0661 |
| GGUCACGUCUCAAUCAACUCAUCCUCAGGAGUUUGCUCCUGUAUUCUCAACAGCUCGCAGUCAAG | 0.139 |
| GGUCACGUCUCAAUCAACUCAAUAGAGGGGGGGAAAACCCCUUUACCCUCACUCUCAACAGCUCGCAGUCAAG | -0.539 |
| GGUCACGUCUCAAUCAACUCUUCUCCCAGGGAAACCCCUGGCAAACUCAACAGCUCGCAGUCAAG | -0.0371 |
| GGUCACGUCUCAAUCAACUCUUUCCCCAGGGAAAACCCUGGCUAUGUCAACAGCUCGCAGUCAAG | -0.0315 |
| GGUCACGUCUCAAUCAACUCAUAAGAGGGGGGGAAAACCCCUUUGCCCUCCGUAUCAACAGCUCGCAGUCAAG | 0.269 |
| GGUCACGUCUCAAUCAACUCAGUUUCAGGAGUUUCCUCCUGCUUUCUCAACAGCUCGCAGUCAAG | -0.0496 |
| GGUCACGUCUCAAUCAACUCAAAAGAGGGGGGGAAAACCCCUUUACCCUCCACAUCAACAGCUCGCAGUCAAG | 0.0915 |
| GGUCACGUCUCAAUCAACUCCAUAGAGGGGGGGAAAACCCCUUUACCCUCCUUAUCAACAGCUCGCAGUCAAG | -0.388 |
| GGUCACGUCUCAAUCAACUCUAUAGAGGGGGGGAAAACCCCUUUGCCCUCAAUUUCAACAGCUCGCAGUCAAG | -0.222 |
| GGUCACGUCUCAAUCAACUCUUUUCCAGGAGUUUUCUCCUGUUAACUCAACAGCUCGCAGUCAAG | -0.123 |
| GGUCACGUCUCAAUCAACUCUAAAGAGGGGGGGAAAACCCCUUUACCCUCCGAAUCAACAGCUCGCAGUCAAG | -0.644 |

| Sequence | binding signal (log2 fold change) |
| --- | --- |
| GGUCACGUCUCAAUCAACUCUUCCUCCAGGGAAAUCCCUGGCUUACUCAACAGCUCGCAGUCAAG | -0.00661 |
| GGUCACGUCUCAAUCAACUCUUUUUCAGGAGUUUCCUCCUGUUUACUCAACAGCUCGCAGUCAAG | 0.241 |
| GGUCACGUCUCAAUCAACUCUUUUCCCAGGGAAAACCCUGGUAUAUUCAACAGCUCGCAGUCAAG | -0.0799 |
| GGUCACGUCUCAAUCAACUCUUCUUCCAGGGAAAGCCCUGGCAAUGUCAACAGCUCGCAGUCAAG | 0.228 |
| GGUCACGUCUCAAUCAACUCCAUAGAGGGGGGGAAAACCCCUUUGCCCUCCAUUUCAACAGCUCGCAGUCAAG | 0.156 |
| GGUCACGUCUCAAUCAACUCUAGUCCAGGAGUUUUCUCCUGUAAAUUCAACAGCUCGCAGUCAAG | -0.164 |
| GGUCACGUCUCAAUCAACUCAUUCUCCAGGGAAAACCCUGGCAAUCUCAACAGCUCGCAGUCAAG | 0.187 |
| GGUCACGUCUCAAUCAACUCUACUUCCAGGGAAACCCCUGGUUAAUUCAACAGCUCGCAGUCAAG | -0.0515 |
| GGUCACGUCUCAAUCAACUCCAUAGAGGGGGGGAAAACCCCUUUACCCUCCACAUCAACAGCUCGCAGUCAAG | -0.22 |
| GGUCACGUCUCAAUCAACUCGUUUUCAGGAGUUUUCUCCUGCUUUUUCAACAGCUCGCAGUCAAG | -0.0955 |
| GGUCACGUCUCAAUCAACUCUUUAGAGGGGGGGAAAACCCCUUUGCCCUCAUCGUCAACAGCUCGCAGUCAAG | 0.0432 |
| GGUCACGUCUCAAUCAACUCCCACGAGGGGGGGAAAACCCCUUUACCCUCAACUUCAACAGCUCGCAGUCAAG | -0.368 |
| GGUCACGUCUCAAUCAACUCAUCGCCCAGGGAAAGCCCUGGUAUAUUCAACAGCUCGCAGUCAAG | -0.0256 |
| GGUCACGUCUCAAUCAACUCAUCCUCAGGAGUUUACUCCUGUAUUUUCAACAGCUCGCAGUCAAG | 0.164 |
| GGUCACGUCUCAAUCAACUCUAUUCCCAGGGAAAGCCCUGGCUUACUCAACAGCUCGCAGUCAAG | -0.062 |
| GGUCACGUCUCAAUCAACUCUUUUUCCAGGGAAAUCCCUGGUAUUUUCAACAGCUCGCAGUCAAG | -0.298 |
| GGUCACGUCUCAAUCAACUCAGUCCCAGGAGUUUACUCCUGCUUUCUCAACAGCUCGCAGUCAAG | -0.0425 |
| GGUCACGUCUCAAUCAACUCUUCCUCCAGGGAAAGCCCUGGCAUACUCAACAGCUCGCAGUCAAG | -0.0298 |
| GGUCACGUCUCAAUCAACUCUACGCCAGGAGUUUCCUCCUGUAUUUUCAACAGCUCGCAGUCAAG | 0.00566 |
| GGUCACGUCUCAAUCAACUCUUCCCCAGGAGUUUCCUCCUGCUUUCUCAACAGCUCGCAGUCAAG | 0.0304 |
| GGUCACGUCUCAAUCAACUCAUCUCCAGGAGUUUUCUCCUGCUAAGUCAACAGCUCGCAGUCAAG | -0.0227 |
| GGUCACGUCUCAAUCAACUCCAAAGAGGGGGGGAAAACCCCUUUGCCCUCAAUAUCAACAGCUCGCAGUCAAG | 0.359 |
| GGUCACGUCUCAAUCAACUCAAUCCCCAGGGAAAUCCCUGGCUUAUUCAACAGCUCGCAGUCAAG | -0.0543 |
| GGUCACGUCUCAAUCAACUCUUUCUCCAGGGAAAACCCUGGUAAAUUCAACAGCUCGCAGUCAAG | -0.119 |
| GGUCACGUCUCAAUCAACUCACAAGAGGGGGGGAAAACCCCUUUACCCUCGUUAUCAACAGCUCGCAGUCAAG | -0.204 |

| Sequence | binding signal (log2 fold change) |
| --- | --- |
| GGUCACGUCUCAAUCAACUCUAUCUCCAGGGAAAGCCCUGGUAAUCUCAACAGCUCGCAGUCAAG | -0.221 |
| GGUCACGUCUCAAUCAACUCUUUUUCCAGGGAAAACCCUGGCAUUCUCAACAGCUCGCAGUCAAG | 0.0765 |
| GGUCACGUCUCAAUCAACUCAUUUUCCAGGGAAACCCCUGGCGUUUUCAACAGCUCGCAGUCAAG | -0.203 |
| GGUCACGUCUCAAUCAACUCAUCUUCAGGAGUUUCCUCCUGCAUUUUCAACAGCUCGCAGUCAAG | 0.139 |
| GGUCACGUCUCAAUCAACUCUAUCUCCAGGGAAAGCCCUGGCUAAUUCAACAGCUCGCAGUCAAG | -0.176 |
| GGUCACGUCUCAAUCAACUCUUCUCCAGGAGUUUUCUCCUGCAUAUUCAACAGCUCGCAGUCAAG | 0.0479 |
| GGUCACGUCUCAAUCAACUCCUACGAGGGGGGGAAAACCCCUUUACCCUCUCAUUCAACAGCUCGCAGUCAAG | 0.0844 |
| GGUCACGUCUCAAUCAACUCAACUUCCAGGGAAAUCCCUGGUUAAUUCAACAGCUCGCAGUCAAG | 0.106 |
| GGUCACGUCUCAAUCAACUCAACUCCAGGAGUUUUCUCCUGUUUUCUCAACAGCUCGCAGUCAAG | -0.00677 |
| GGUCACGUCUCAAUCAACUCAUUUUCAGGAGUUUUCUCCUGCUUAGUCAACAGCUCGCAGUCAAG | 0.152 |
| GGUCACGUCUCAAUCAACUCAUUCUCCAGGGAAACCCCUGGUAAUUUCAACAGCUCGCAGUCAAG | -0.192 |
| GGUCACGUCUCAAUCAACUCAUCCUCAGGAGUUUACUCCUGCUAAUUCAACAGCUCGCAGUCAAG | -0.0509 |
| GGUCACGUCUCAAUCAACUCAUCUCCAGGAGUUUACUCCUGCAAUUUCAACAGCUCGCAGUCAAG | 0.0648 |
| GGUCACGUCUCAAUCAACUCCUAAGAGGGGGGGAAAACCCCUUUACCCUCAUUCUCAACAGCUCGCAGUCAAG | -0.204 |
| GGUCACGUCUCAAUCAACUCUCUAGAGGGGGGGAAAACCCCUUUACCCUCAUCAUCAACAGCUCGCAGUCAAG | 0.113 |
| GGUCACGUCUCAAUCAACUCAAACGAGGGGGGGAAAACCCCUUUGCCCUCAUUAUCAACAGCUCGCAGUCAAG | 0.0544 |
| GGUCACGUCUCAAUCAACUCUUUCCCAGGAGUUUCCUCCUGCUUUUUCAACAGCUCGCAGUCAAG | -0.0378 |
| GGUCACGUCUCAAUCAACUCUUUCCCAGGAGUUUACUCCUGUAAUCUCAACAGCUCGCAGUCAAG | 0.000119 |
| GGUCACGUCUCAAUCAACUCUUUUUCCAGGGAAAGCCCUGGCUUAUUCAACAGCUCGCAGUCAAG | -0.155 |
| GGUCACGUCUCAAUCAACUCAACUCCAGGAGUUUACUCCUGUUAUCUCAACAGCUCGCAGUCAAG | -0.121 |
| GGUCACGUCUCAAUCAACUCAGUCCCCAGGGAAAGCCCUGGUAUAUUCAACAGCUCGCAGUCAAG | -0.12 |
| GGUCACGUCUCAAUCAACUCAAUCCCCAGGGAAACCCCUGGUUUUCUCAACAGCUCGCAGUCAAG | -0.00492 |
| GGUCACGUCUCAAUCAACUCUAUCUCAGGAGUUUUCUCCUGCUAACUCAACAGCUCGCAGUCAAG | -0.0805 |
| GGUCACGUCUCAAUCAACUCAUUAGAGGGGGGGAAAACCCCUUUACCCUCAAUAUCAACAGCUCGCAGUCAAG | -0.0895 |
